Assay results taken from patent publication US20240174629A1 (OTCPHARM JSC, priority 2021, published 2024).
≈ marks a conversion by molar mass, not a printed value. Counter-ions that a name gives are not always drawn. Like-named read-outs stand apart in the source and are kept apart here.

Tested on: influenza A/PuertoRico/8/34 (H1N1)
Assay: Activity against the influenza virus, virus titer reduction in MDCK cells (hemagglutination)
Conditions: for IC50: Influenza A virus, H1N1, MDCK; for SI (selectivity index): ratio of CC50 to IC50
[1] = MDCK cells, influenza A/PuertoRico/8/34 (H1N1), MOI 0.01, mean±SD, read-out: IC50 (A, H1N1)

Structure (SMILES)	IC50 [1] [µg/mL]	SI (selectivity index)	IC50 (read-out: IC50 (A, H1N1), MDCK cells, influenza A/PuertoRico/8/34 (H1N1), MOI 0.01, mean±SD) [µg/mL]
CCOC(=O)c1c(N(Cc2ccccc2)C(C)=O)sc2c(Cl)c(O)ccc12 [Example 1, Ethyl 2-[acetyl(benzyl)amino]-7-chloro-6-hydroxy-1-benzothiophene-3-carboxylate]	6.7 ± 1.1 (≈ 16.6 µM)	45	–
CCOC(=O)c1c(N(Cc2ccccc2)C(C)=O)sc2cc(O)ccc12 [Example 2, Ethyl 2-[acetyl(benzyl)amino]-6-hydroxy-1-benzothiophene-3-carboxylate]	0.5 ± 0.7 (≈ 1.35 µM)	23	–
COC(=O)c1c(N(Cc2ccccc2)C(C)=O)sc2cc(O)ccc12 [Example 4, Methyl 2-[acetyl(benzyl)amino]-6-hydroxy-1-benzothiophene-3-carboxylate]	0.34 ± 0.81 (≈ 0.957 µM)	600	–
CC(=O)N(Cc1ccccc1)c1sc2c(Cl)c(O)ccc2c1C(=O)OC(C)(C)C [Example 5, Tert-butyl 2-[acetyl(benzyl)amino]-7-chloro-6-hydroxy-1-benzothiophene-3-carboxylate]	1 (≈ 2.32 µM)	4	–
CC(=O)N(Cc1ccccc1)c1sc2c(Cl)c(O)ccc2c1C(=O)OC(C)C [Example 7, Isopropyl 2-[acetyl(benzyl)amino]-7-chloro-6-hydroxy-1-benzothiophene-3-carboxylate]	0.3 ± 0.5 (≈ 0.718 µM)	7	–
CC(=O)N(Cc1ccccc1)c1sc2cc(O)ccc2c1C(=O)OC(C)C [Example 8, Isopropyl 2-[acetyl(benzyl)amino]-6-hydroxy-1-benzothiophene-3-carboxylate]	0.3 ± 0.4 (≈ 0.782 µM)	46	–
CCOC(=O)c1c(N(Cc2ccccc2Cl)C(C)=O)sc2c(Cl)c(O)ccc12 [Example 9, Ethyl 2-[acetyl(2-chlorobenzyl)amino]-7-chloro-6-hydroxy-1-benzothiophene-3-carboxylate]	0.08 ± 0.003 (≈ 0.183 µM)	104	–
COC(=O)c1c(N(Cc2ccccc2Cl)C(C)=O)sc2cc(O)ccc12 [Example 16, Methyl 2-[acetyl(2-chlorobenzyl)amino]-6-hydroxy-1-benzothiophene-3-carboxylate]	–	7	< 3
COC(=O)c1c(N(Cc2ccc(C(F)(F)F)cc2)C(C)=O)sc2c(Cl)c(O)ccc12 [Example 21, Methyl 2-[acetyl(4-trifluoromethylbenzyl)amino]-7-chloro-6-hydroxy-1-benzothiophene-3-carboxylate]	0.5 ± 0.9 (≈ 1.09 µM)	11	–
COC(=O)c1c(N(Cc2ccc(C(F)(F)F)cc2)C(C)=O)sc2cc(O)ccc12 [Example 22, Methyl 2-[acetyl(4-trifluoromethylbenzyl)amino]-6-hydroxy-1-benzothiophene-3-carboxylate]	0.8 ± 1.2 (≈ 1.89 µM)	4	–
COC(=O)c1c(N(Cc2ccccc2F)C(C)=O)sc2cc(O)ccc12 [Example 24, Methyl 2-[acetyl(2-fluorobenzyl)amino]-6-hydroxy-1-benzothiophene-3-carboxylate]	31 ± 2 (≈ 83 µM)	10	–
COC(=O)c1c(N(Cc2cccc(F)c2)C(C)=O)sc2c(Cl)c(O)ccc12 [Example 25, Methyl 2-[acetyl(3-fluorobenzyl)amino]-7-chloro-6-hydroxy-1-benzothiophene-3-carboxylate]	2.5 ± 0.3 (≈ 6.13 µM)	10	–
COC(=O)c1c(N(Cc2ccc(F)cc2)C(C)=O)sc2c(Cl)c(O)ccc12 [Example 27, Methyl 2-[acetyl(4-fluorobenzyl)amino]-7-chloro-6-hydroxy-1-benzothiophene-3-carboxylate]	3.98 ± 0.4 (≈ 9.76 µM)	10	–
COC(=O)c1c(N(Cc2ccc(F)cc2)C(C)=O)sc2cc(O)ccc12 [Example 28, Methyl 2-[acetyl(4-fluorobenzyl)amino]-6-hydroxy-1-benzothiophene-3-carboxylate]	5.9 ± 0.7 (≈ 15.8 µM)	41	–
COC(=O)c1c(N(Cc2ccc(F)cc2F)C(C)=O)sc2c(Cl)c(O)ccc12 [Example 29, Methyl 2-[acetyl(2,4-difluorobenzyl)amino]-7-chloro-6-hydroxy-1-benzothiophene-3-carboxylate]	19 ± 2.1 (≈ 44.6 µM)	16	–
COC(=O)c1c(N(Cc2ccc(F)cc2F)C(C)=O)sc2cc(O)ccc12 [Example 30, Methyl 2-[acetyl(2,4-difluorobenzyl)amino]-6-hydroxy-1-benzothiophene-3-carboxylate]	30 ± 2.8 (≈ 76.6 µM)	10	–
COC(=O)c1c(N(Cc2cccc3ccccc23)C(C)=O)sc2cc(O)ccc12 [Example 32, Methyl 2-[acetyl(1-naphthylmethyl)amino]-6-hydroxy-1-benzothiophene-3-carboxylate]	68 ± 8 (≈ 168 µM)	4	–
COC(=O)c1c(N(Cc2ccc3ccccc3c2)C(C)=O)sc2c(Cl)c(O)ccc12 [Example 33, Methyl 2-[acetyl(2-naphthylmethyl)amino]-7-chloro-6-hydroxy-1-benzothiophene-3-carboxylate]	1 (≈ 2.27 µM)	4	–
COC(=O)c1c(N(CCc2ccccc2)C(C)=O)sc2cc(O)ccc12 [Example 36, Methyl 2-[acetyl(2-phenylethyl)amino]-6-hydroxy-1-benzothiophene-3-carboxylate]	4.9 ± 0.6 (≈ 13.3 µM)	61	–

Structure (SMILES)	IC50 [1] [µg/mL]	SI (selectivity index)	IC50 (read-out: IC50 (A, H1N1), MDCK cells, influenza A/PuertoRico/8/34 (H1N1), MOI 0.01, mean±SD) [µg/mL]
COC(=O)c1c(N(C(C)=O)C(C)c2ccccc2)sc2c(Cl)c(O)ccc12 (stereo not shown) [Example 37, Methyl 2-[acetyl(1-phenylethyl)amino]-7-chloro-6-hydroxy-1-benzothiophene-3-carboxylate]	4.9 ± 0.6 (≈ 12.1 µM)	5	–
COC(=O)c1c(N(C(C)=O)C(C)c2ccccc2)sc2cc(O)ccc12 (stereo not shown) [Example 38, Methyl 2-[acetyl(1-phenylethyl)amino]-6-hydroxy-1-benzothiophene-3-carboxylate]	7.9 ± 1 (≈ 21.4 µM)	4	–
COC(=O)c1c(N(Cc2ccc(C(C)C)cc2)C(C)=O)sc2c(Cl)c(O)ccc12 [Example 41, Methyl 2-[acetyl(4-isopropylbenzyl)amino]-7-chloro-6-hydroxy-1-benzothiophene-3-carboxylate]	1 (≈ 2.32 µM)	5	–
COC(=O)c1c(N(Cc2ccc(C(C)C)cc2)C(C)=O)sc2cc(O)ccc12 [Example 42, Methyl 2-[acetyl(4-isopropylbenzyl)amino]-6-hydroxy-1-benzothiophene-3-carboxylate]	3 (≈ 7.55 µM)	3	–
CC(=O)N(Cc1ccccc1)c1sc2cc(O)ccc2c1C#N [Example 47, N-benzyl-N-(3-cyano-6-hydroxy-1-benzothiophene-2-yl)acetamide]	0.6 ± 0.7 (≈ 1.86 µM)	28	–
COC(=O)c1c(N(Cc2ccccc2)C(C)=O)sc2c(CN(C)C)c(O)ccc12 [Example 50, Methyl 2-[acelyl (benzyl)amino-7-[(dimethylamino)methyl]-6-hydroxy-1-benzothiophene-3-carboxylate]	0.6 ± 0.6 (≈ 1.45 µM)	303	–
COC(=O)c1c(N(Cc2ccccc2Cl)C(C)=O)sc2c(CN(C)C)c(O)ccc12 [Example 51]	1 (≈ 2.24 µM)	300	–
COC(=O)c1c(N(Cc2cccc(F)c2)C(C)=O)sc2c(CN(C)C)c(O)ccc12 [Example 53]	3 (≈ 6.97 µM)	100	–
COC(=O)c1c(N(Cc2ccc(F)cc2F)C(C)=O)sc2c(CN(C)C)c(O)ccc12 [Example 55]	36 ± 4.1 (≈ 80.3 µM)	8	–
COC(=O)c1c(N(CCc2ccccc2F)C(C)=O)sc2c(CN(C)C)c(O)ccc12 [Example 56, Methyl 2-{acetyl[2-(2-fluorophenyl)ethyl]amino}-7-[(dimethylamino)methyl]-6-hydroxy-1-benzothiophene-3-carboxylate]	3.3 ± 0.4 (≈ 7.42 µM)	91	–
COC(=O)c1c(N(Cc2ccccc2C)C(C)=O)sc2c(CN(C)C)c(O)ccc12 [Example 58]	19 ± 2.2 (≈ 44.5 µM)	16	–
COC(=O)c1c(N(Cc2ccccc2C(F)(F)F)C(C)=O)sc2c(CN(C)C)c(O)ccc12 [Example 59]	1 (≈ 2.08 µM)	300	–
COC(=O)c1c(N(Cc2ccccc2C#N)C(C)=O)sc2c(CN(C)C)c(O)ccc12 [Example 60]	4 (≈ 9.14 µM)	75	–
COC(=O)c1c(N(Cc2ccc(F)cc2)C(C)=O)sc2c(CN(C)C)c(O)ccc12 [Example 62, Methyl 2-[acetyl(4-fluorobenzyl)amino-7-[(dimethylamino)methyl]-6-hydroxy-1-benzothiophene-3-carboxylate hydrochloride]	11.2 ± 1.3	8	–
CCN(CC)Cc1c(O)ccc2c(C(=O)OC)c(N(Cc3ccccc3)C(C)=O)sc12 [Example 64, hydrochloride]	25.3 ± 3.6	6	–
COC(=O)c1c(N(Cc2ccccc2)C(C)=O)sc2c(CN3CCN(C)CC3)c(O)ccc12 [Example 65, Methyl 2-[acetyl(benzyl)amino-6-hydroxy-7-[(4-methylpiperazin-1-yl)methyl]-1-benzothiophene-3-carboxylate hydrochloride]	5.9 ± 0.6	3	–
CC(=O)N(Cc1ccccc1)c1sc2c(Cl)c(O)ccc2c1C(=O)O [Example 66, 2-[acetyl(benzyl)amino]-7-chloro-6-hydroxy-1-benzothiophene-3-carboxylic acid]	5.3 ± 0.9 (≈ 14.1 µM)	57	–
CC(=O)N(Cc1ccccc1)c1sc2cc(O)ccc2c1C(=O)O [Example 67, 2-[acetyl(benzyl)amino]-6-hydroxy-1-benzothiophene-3-carboxylic acid]	160 ± 19 (≈ 469 µM)	2	–
CC(=O)N(Cc1ccccc1Cl)c1sc2c(Cl)c(O)ccc2c1C(=O)O [Example 68, 2-[acetyl(2-chlorobenzyl)amino]-7-chloro-6-hydroxy-1-benzothiophene-3-carboxylic acid]	23 ± 3 (≈ 56.1 µM)	3	–
